# Publication PMC5892938
# Some of the results follow. At the low end of the ranking the order means little.
# Molecular target: GST-SBP-SLBP (stem-loop binding protein) (UniProt Q14493)
# Test: targeted RNA Bind-n-Seq;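 also: DESeq read counts versus GST-SBP nonspecific binding control pulldown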
# Settings: RBNS binding buffer: 25 mM Tris pH 7.5, 150 mM KCl, 3 mM MgCl2, 0.1% Tween, 0.5 mg/mL BSA, 1 mM DTT; 27 nM protein, 750 pM RNA pool; temperature not stated; high values mean tight binding
row,Sequence,binding signal (log2 fold change)
1,GGUCACGUCUCAAUCAACUCAUUCCCCAGGGAAAUCCCUGGUAUACUCAACAGCUCGCAGUCAAG,0.0434
2,GGUCACGUCUCAAUCAACUCUCUCGAGGGGGGGAAAACCCCUUUGCCCUCAUAAUCAACAGCUCGCAGUCAAG,-0.27
3,GGUCACGUCUCAAUCAACUCAAUUCCCAGGGAAAGCCCUGGCUUAUUCAACAGCUCGCAGUCAAG,0.218
4,GGUCACGUCUCAAUCAACUCUAUCCCCAGGGAAAACCCUGGCUAUUUCAACAGCUCGCAGUCAAG,-0.00107
5,GGUCACGUCUCAAUCAACUCCAUAGAGGGGGGGAAAACCCCUUUACCCUCCAUCUCAACAGCUCGCAGUCAAG,-0.232
6,GGUCACGUCUCAAUCAACUCUUUUCCCAGGGAAACCCCUGGCUAAUUCAACAGCUCGCAGUCAAG,0.167
7,GGUCACGUCUCAAUCAACUCAACUCCCAGGGAAACCCCUGGUUUAUUCAACAGCUCGCAGUCAAG,0.0772
8,GGUCACGUCUCAAUCAACUCAAUUUCCAGGGAAAGCCCUGGUUUACUCAACAGCUCGCAGUCAAG,-0.098
9,GGUCACGUCUCAAUCAACUCAUUCUCCAGGGAAAUCCCUGGUUUUUUCAACAGCUCGCAGUCAAG,0.0408
10,GGUCACGUCUCAAUCAACUCAACUGAGGGGGGGAAAACCCCUUUACCCUCUACAUCAACAGCUCGCAGUCAAG,0.0722
11,GGUCACGUCUCAAUCAACUCAUUUCCAGGAGUUUGCUCCUGUAUUUUCAACAGCUCGCAGUCAAG,-0.224
12,GGUCACGUCUCAAUCAACUCUUCUCCCAGGGAAAUCCCUGGCAUUUUCAACAGCUCGCAGUCAAG,0.0418
13,GGUCACGUCUCAAUCAACUCAACUCCAGGAGUUUCCUCCUGCUAUGUCAACAGCUCGCAGUCAAG,0.169
14,GGUCACGUCUCAAUCAACUCUUCCCCAGGAGUUUUCUCCUGCUUACUCAACAGCUCGCAGUCAAG,0.0919
15,GGUCACGUCUCAAUCAACUCAAUUUCCAGGGAAACCCCUGGUAUAUUCAACAGCUCGCAGUCAAG,0.0859
16,GGUCACGUCUCAAUCAACUCAUCGGCCAGGGAAAUCCCUGGGAAUUUCAACAGCUCGCAGUCAAG,-0.0556
17,GGUCACGUCUCAAUCAACUCAAACGAGGGGGGGAAAACCCCUUUACCCUCACUAUCAACAGCUCGCAGUCAAG,-0.209
18,GGUCACGUCUCAAUCAACUCAUCCCCCAGGGAAAACCCUGGUUUUUUCAACAGCUCGCAGUCAAG,-0.202
19,GGUCACGUCUCAAUCAACUCUUCCCCAGGAGUUUACUCCUGCUUAUUCAACAGCUCGCAGUCAAG,-0.234
20,GGUCACGUCUCAAUCAACUCAUCCUCCAGGGAAAGCCCUGGUAAAUUCAACAGCUCGCAGUCAAG,0.131
21,GGUCACGUCUCAAUCAACUCUUACGAGGGGGGGAAAACCCCUUUACCCUCACUAUCAACAGCUCGCAGUCAAG,0.219
22,GGUCACGUCUCAAUCAACUCUCUAGAGGGGGGGAAAACCCCUUUGCCCUCCACUUCAACAGCUCGCAGUCAAG,-0.08
23,GGUCACGUCUCAAUCAACUCAAGUCCCAGGGAAAGCCCUGGCAAUUUCAACAGCUCGCAGUCAAG,-0.06
24,GGUCACGUCUCAAUCAACUCAUCUCCAGGAGUUUUCUCCUGCUAUUUCAACAGCUCGCAGUCAAG,0.174
25,GGUCACGUCUCAAUCAACUCAGUCUCCAGGGAAAUCCCUGGCAUAUUCAACAGCUCGCAGUCAAG,0.0224

row,Sequence,binding signal (log2 fold change)
1,GGUCACGUCUCAAUCAACUCAAACGAGGGGGGGAAAACCCCUUUACCCUCAUCAUCAACAGCUCGCAGUCAAG,0.172
2,GGUCACGUCUCAAUCAACUCUUUUGCAGGAGUUUCCUCCUGGUAUUUCAACAGCUCGCAGUCAAG,-0.0916
3,GGUCACGUCUCAAUCAACUCUAUUCCCAGGGAAACCCCUGGUAUAUUCAACAGCUCGCAGUCAAG,0.249
4,GGUCACGUCUCAAUCAACUCCCCAGAGGGGGGGAAAACCCCUUUACCCUCAAUAUCAACAGCUCGCAGUCAAG,-0.38
5,GGUCACGUCUCAAUCAACUCAUUCGAGGGGGGGAAAACCCCUUUACCCUCACCGUCAACAGCUCGCAGUCAAG,-0.116
6,GGUCACGUCUCAAUCAACUCAACUCCCAGGGAAAGCCCUGGCUAACUCAACAGCUCGCAGUCAAG,-0.0981
7,GGUCACGUCUCAAUCAACUCUCCCGAGGGGGGGAAAACCCCUUUGCCCUCAACAUCAACAGCUCGCAGUCAAG,-0.169
8,GGUCACGUCUCAAUCAACUCAUCCCCCAGGGAAAGCCCUGGCAAUCUCAACAGCUCGCAGUCAAG,-0.00118
9,GGUCACGUCUCAAUCAACUCAAUUUCAGGAGUUUCCUCCUGUAUUCUCAACAGCUCGCAGUCAAG,0.173
10,GGUCACGUCUCAAUCAACUCAUCCUCCAGGGAAAACCCUGGCUUUCUCAACAGCUCGCAGUCAAG,-0.00496
11,GGUCACGUCUCAAUCAACUCUUUUCCAGGAGUUUUCUCCUGCUAAUUCAACAGCUCGCAGUCAAG,0.0626
12,GGUCACGUCUCAAUCAACUCUUUUCCCAGGGAAAUCCCUGGUAUAUUCAACAGCUCGCAGUCAAG,0.0879
13,GGUCACGUCUCAAUCAACUCACACGAGGGGGGGAAAACCCCUUUACCCUCACCUUCAACAGCUCGCAGUCAAG,-0.308
14,GGUCACGUCUCAAUCAACUCUAUUUCCAGGGAAAACCCUGGCGUAUUCAACAGCUCGCAGUCAAG,-0.105
15,GGUCACGUCUCAAUCAACUCAUAAGAGGGGGGGAAAACCCCUUUACCCUCGUAAUCAACAGCUCGCAGUCAAG,-0.247
16,GGUCACGUCUCAAUCAACUCUAUAGAGGGGGGGAAAACCCCUUUACCCUCCUUAUCAACAGCUCGCAGUCAAG,0.246
17,GGUCACGUCUCAAUCAACUCAAUCCCCAGGGAAACCCCUGGUUUACUCAACAGCUCGCAGUCAAG,-0.0384
18,GGUCACGUCUCAAUCAACUCUUUUUCCAGGGAAACCCCUGGUAUAUUCAACAGCUCGCAGUCAAG,0.0376
19,GGUCACGUCUCAAUCAACUCAAUUCCCAGGGAAAUCCCUGGUAUUUUCAACAGCUCGCAGUCAAG,-0.0802
20,GGUCACGUCUCAAUCAACUCAUCUCCCAGGGAAAUCCCUGGUAAUUUCAACAGCUCGCAGUCAAG,-0.142
21,GGUCACGUCUCAAUCAACUCAUCCUCCAGGGAAAUCCCUGGCAUAUUCAACAGCUCGCAGUCAAG,0.0753
22,GGUCACGUCUCAAUCAACUCUAUUUCCAGGGAAAACCCUGGCAUACUCAACAGCUCGCAGUCAAG,-0.148
23,GGUCACGUCUCAAUCAACUCUAUUCCAGGAGUUUCCUCCUGCUUAUUCAACAGCUCGCAGUCAAG,0.156
24,GGUCACGUCUCAAUCAACUCAUCCUCCAGGGAAACCCCUGGCUAUCUCAACAGCUCGCAGUCAAG,0.3
25,GGUCACGUCUCAAUCAACUCUUUCUCCAGGGAAAGCCCUGGUAAUCUCAACAGCUCGCAGUCAAG,0.00552

row,Sequence,binding signal (log2 fold change)
1,GGUCACGUCUCAAUCAACUCAAUCUCCAGGGAAAUCCCUGGCAAACUCAACAGCUCGCAGUCAAG,0.221
2,GGUCACGUCUCAAUCAACUCAUUUUCAGGAGUUUCCUCCUGCUUUUUCAACAGCUCGCAGUCAAG,-0.0574
3,GGUCACGUCUCAAUCAACUCAAUCUCCAGGGAAAACCCUGGCAAACUCAACAGCUCGCAGUCAAG,0.176
4,GGUCACGUCUCAAUCAACUCAAUCUCAGGAGUUUCCUCCUGCUAUCUCAACAGCUCGCAGUCAAG,0.115
5,GGUCACGUCUCAAUCAACUCAUCUUCAGGAGUUUUCUCCUGUAAUCUCAACAGCUCGCAGUCAAG,0.0587
6,GGUCACGUCUCAAUCAACUCAUCCGCAGGAGUUUUCUCCUGGUAUUUCAACAGCUCGCAGUCAAG,-0.258
7,GGUCACGUCUCAAUCAACUCUUCCCCAGGAGUUUCCUCCUGUAAAUUCAACAGCUCGCAGUCAAG,0.00759
8,GGUCACGUCUCAAUCAACUCCUUAGAGGGGGGGAAAACCCCUUUACCCUCGUUAUCAACAGCUCGCAGUCAAG,0.302
9,GGUCACGUCUCAAUCAACUCUUCUUCCAGGGAAAACCCUGGUUUUCUCAACAGCUCGCAGUCAAG,-0.292
10,GGUCACGUCUCAAUCAACUCAUUUUCAGGAGUUUGCUCCUGCUAAUUCAACAGCUCGCAGUCAAG,-0.13
11,GGUCACGUCUCAAUCAACUCUUUUCCCAGGGAAAUCCCUGGCUUACUCAACAGCUCGCAGUCAAG,0.0663
12,GGUCACGUCUCAAUCAACUCAACUCCAGGAGUUUCCUCCUGUAUACUCAACAGCUCGCAGUCAAG,0.179
13,GGUCACGUCUCAAUCAACUCUUCCCCCAGGGAAAUCCCUGGUAAAUUCAACAGCUCGCAGUCAAG,0.164
14,GGUCACGUCUCAAUCAACUCUUCGUCCAGGGAAAGCCCUGGUAUUCUCAACAGCUCGCAGUCAAG,0.118
15,GGUCACGUCUCAAUCAACUCAAUUUCAGGAGUUUACUCCUGUUUACUCAACAGCUCGCAGUCAAG,0.058
16,GGUCACGUCUCAAUCAACUCAAGUCCCAGGGAAAUCCCUGGUUUAUUCAACAGCUCGCAGUCAAG,-0.149
17,GGUCACGUCUCAAUCAACUCAUUCGAGGGGGGGAAAACCCCUUUACCCUCAACAUCAACAGCUCGCAGUCAAG,-0.113
18,GGUCACGUCUCAAUCAACUCCUCCGAGGGGGGGAAAACCCCUUUACCCUCAAAAUCAACAGCUCGCAGUCAAG,0.0269
19,GGUCACGUCUCAAUCAACUCACUAGAGGGGGGGAAAACCCCUUUGCCCUCCACAUCAACAGCUCGCAGUCAAG,0.209
20,GGUCACGUCUCAAUCAACUCAGUUUCCAGGGAAAGCCCUGGCUUAUUCAACAGCUCGCAGUCAAG,0.0972
21,GGUCACGUCUCAAUCAACUCAUCCUCAGGAGUUUACUCCUGUAUAUUCAACAGCUCGCAGUCAAG,-0.204
22,GGUCACGUCUCAAUCAACUCCAAAGAGGGGGGGAAAACCCCUUUGCCCUCCAAUUCAACAGCUCGCAGUCAAG,0.304
23,GGUCACGUCUCAAUCAACUCUUUCUCAGGAGUUUCCUCCUGUAUACUCAACAGCUCGCAGUCAAG,-0.0391
24,GGUCACGUCUCAAUCAACUCUUCUCCCAGGGAAAACCCUGGUUAUUUCAACAGCUCGCAGUCAAG,0.0327
